Measurements taken from PubChem BioAssay (NCI).
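A five-concentration, 48-hour dose response in 96-well plates underlies each endpoint, interpolated linearly between surrounding concentrations. At the GI50, growth is halved. TGI marks complete inhibition of growth.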

Tested on: NCI-H322M lung
Experiment: NCI-60 cell line screen, 48 h

Compound | GI50 | TGI
CN1CCN(c2ccc(Nc3nc(NCCCNC(=O)c4ccc(F)cc4)c4sccc4n3)cc2)CC1 | 5.87 µM | 18.9 µM
COc1cccc(/C=C/c2nc3ccccc3c(=O)n2CC(=O)Nc2ccccc2)c1 | 11.7 µM | 28.1 µM
